According to patent US8067379B2, “Sulfur compounds as inhibitors of hepatitis C virus NS3 serine protease” (Schering Corporation, priority 2004, dated 2011):

These compounds were tested against Recombinant heterodimeric HCV NS3/NS4A protease (strain 1a) (Hepatitis C virus genotype 1a, UniProt P27958) (assay: Spectrophotometric assay for HCV serine protease inhibitory activity (chromogenic ester substrates)). Settings: Table 3A; cells that print a number instead of a class symbol; read-out: Ki* Range.
Assay type: biochemical

Compound	Ki [nM]
C=CCNC(=O)C(=O)C(CCCC)NC(=O)[C@@H]1[C@@H]2[C@H](CN1C(=O)[C@@H](NC(=O)NC1(C3CCCS3(=O)=O)CCCCC1)C(C)(C)C)C2(C)C (stereo partly shown) [Compound 611]	3.8

Same assay, conditions: Table 3A; class symbols; read-out: Ki* Range

Compound	Ki [nM]
C=CCNC(=O)C(=O)C(CCC1CC1)NC(=O)[C@@H]1[C@@H]2[C@H](CN1C(=O)[C@@H](NC(=O)NC1(CS(=O)(=O)C(C)(C)C)CCCCC1)C1(C)CCCC1)C2(C)C (stereo partly shown) [Compound 605]	< 75
C=CCNC(=O)C(=O)C(CCC)NC(=O)[C@@H]1CC2(CN1C(=O)[C@@H](NC(=O)NC1(CS(=O)(=O)C(C)(C)C)CCCCC1)C(C)(C)C)SCCS2 (stereo partly shown) [Compound 606]	< 75
CC1([C@H](NC(=O)NC2(C3CCCS3(=O)=O)CCCCC2)C(=O)N2C[C@H]3[C@@H]([C@H]2C(=O)NC(CC2CC2)C(=O)C(=O)NC2CC2)C3(C)C)CCCCC1 (stereo partly shown) [Compound 607]	< 75
C=CCNC(=O)C(=O)C(CC1CC1)NC(=O)[C@@H]1[C@@H]2[C@H](CN1C(=O)[C@@H](NC(=O)NC1(CS(=O)(=O)C(C)(C)C)CCCCC1)C(C)(C)SC)C2(C)C (stereo partly shown) [Compound 609]	< 75
C=CCNC(=O)C(=O)C(CCCC)NC(=O)[C@@H]1[C@@H]2[C@H](CN1C(=O)[C@@H](NC(=O)NC1(C3CCCS3(=O)=O)CCCCC1)C1(C)CCCCC1)C2(C)C (stereo partly shown) [Compound 610]	< 75
C=CCNC(=O)C(=O)C(CCC)NC(=O)[C@@H]1[C@@H]2[C@H](CN1C(=O)[C@@H](NC(=O)NC1(C3CCCS3(=O)=O)CCCCC1)C1(C)CCCCC1)C2(C)C (stereo partly shown) [Compound 612]	< 75
C=CCNC(=O)C(=O)C(CCC)NC(=O)[C@@H]1CC2(CN1C(=O)[C@@H](NC(=O)NC1(CS(=O)(=O)C(C)(C)C)CCCCC1)C1(C)CCCCC1)SCCS2 (stereo partly shown) [Compound 613]	< 75
C=CCNC(=O)C(=O)C(CC1CC1)NC(=O)[C@@H]1[C@@H]2[C@H](CN1C(=O)[C@@H](NC(=O)NC1(CS(=O)(=O)C(C)(C)C)CCCCC1)C(C)(C)S(C)(=O)=O)C2(C)C (stereo partly shown) [Compound 614]	75 to 250
CCCC(NC(=O)[C@@H]1[C@@H]2[C@H](CN1C(=O)[C@@H](NC(=O)NC1(C3CCCS3(=O)=O)CCCCC1)C1(C)CCCCC1)C2(C)C)C(=O)C(=O)NC1CC1 (stereo partly shown) [Compound 615]	< 75
C=CCNC(=O)C(=O)C(CC1CC1)NC(=O)[C@@H]1[C@@H]2[C@H](CN1C(=O)[C@@H](NC(=O)NC1(C3CCCS3(=O)=O)CCCCC1)C(C)(C)C)C2(C)C (stereo partly shown) [Compound 616]	< 75
CCCC(NC(=O)[C@@H]1[C@@H]2[C@H](CN1C(=O)[C@@H](NC(=O)NC1(C3CCCS3(=O)=O)CCCCC1)C(C)(C)C)C2(C)C)C(=O)C(=O)NC1CC1 (stereo partly shown) [Compound 617]	< 75
C=CCNC(=O)C(=O)C(CCC)NC(=O)[C@@H]1[C@@H]2[C@H](CN1C(=O)[C@@H](NC(=O)NC1(C3CCCS3(=O)=O)CCCCC1)C(C)(C)C)C2(C)C (stereo partly shown) [Compound 618]	< 75
C=CCNC(=O)C(=O)C(CCC1CC1)NC(=O)[C@@H]1[C@@H]2[C@H](CN1C(=O)[C@@H](NC(=O)NC1(C3CCCS3(=O)=O)CCCCC1)C(C)(C)C)C2(C)C (stereo partly shown) [Compound 619]	< 75
CC(C)(C)[C@H](NC(=O)NC1(C2CCCS2(=O)=O)CCCCC1)C(=O)N1C[C@H]2[C@@H]([C@H]1C(=O)NC(CC1CC1)C(=O)C(=O)NC1CC1)C2(C)C (stereo partly shown) [Compound 620]	< 75
C=CCNC(=O)C(=O)C(CCC1CC1)NC(=O)[C@@H]1[C@@H]2[C@H](CN1C(=O)[C@@H](NC(=O)NC1(C3CCCS3(=O)=O)CCCCC1)C1(C)CCCCC1)C2(C)C (stereo partly shown) [Compound 623]	< 75
CC1([C@H](NC(=O)NC2(CS(=O)(=O)C(C)(C)C)CCCCC2)C(=O)N2C[C@H]3[C@@H]([C@H]2C(=O)NC(CC2CC2)C(=O)C(=O)NC2CC2)C3(C)C)Cc2ccccc2C1 (stereo partly shown) [Compound 624]	75 to 250
C=CCNC(=O)C(=O)C(CCCC)NC(=O)[C@@H]1[C@@H]2[C@H](CN1C(=O)[C@@H](NC(=O)NC1(CS(=O)(=O)C(C)(C)C)CCCCC1)C1(C)Cc3ccccc3C1)C2(C)C (stereo partly shown) [Compound 625]	< 75
C=CCNC(=O)C(=O)C(CC1CC1)NC(=O)[C@@H]1[C@@H]2[C@H](CN1C(=O)[C@@H](NC(=O)NC1(CS(=O)(=O)C(C)(C)C)CCCCC1)C1(C)Cc3ccccc3C1)C2(C)C (stereo partly shown) [Compound 626]	< 75
C=CCNC(=O)C(=O)C(CC1CC1)NC(=O)[C@@H]1[C@@H]2[C@H](CN1C(=O)[C@H](CSC(C)(C)C)NC(=O)NC1(CS(=O)(=O)C(C)(C)C)CCCCC1)C2(C)C (stereo partly shown) [Compound 627]	> 250
C=CCNC(=O)C(=O)C(CCCC)NC(=O)[C@@H]1[C@@H]2[C@H](CN1C(=O)[C@@H](NC(=O)NC1(C3CCCS3(=O)=O)CCCCC1)C(C)(C)C)C2(C)C (stereo partly shown) [Compound 629]	< 75
C#CCCC(NC(=O)[C@@H]1[C@@H]2[C@H](CN1C(=O)[C@@H](NC(=O)NC1(C3CCCS3(=O)=O)CCCCC1)C(C)(C)C)C2(C)C)C(=O)C(=O)NCC=C (stereo partly shown) [Compound 630]	< 75
C=CCNC(=O)C(=O)C(CCCC)NC(=O)[C@@H]1[C@@H]2[C@H](CN1C(=O)[C@@H](NC(=O)NC1(C3CCCS3(=O)=O)CCCCC1)C1(C)CCCCC1)C2(C)C (stereo partly shown) [Compound 631]	< 75
CCCNC(=O)C(=O)C(CCC)NC(=O)[C@@H]1[C@@H]2[C@H](CN1C(=O)[C@@H](NC(=O)NC1(C3CCCS3(=O)=O)CCCCC1)C(C)(C)C)C2(C)C (stereo partly shown) [Compound 632]	< 75

Compound	Ki [nM]
CCCNC(=O)C(=O)C(CC1CC1)NC(=O)[C@@H]1[C@@H]2[C@H](CN1C(=O)[C@@H](NC(=O)NC1(C3CCCS3(=O)=O)CCCCC1)C(C)(C)C)C2(C)C (stereo partly shown) [Compound 633]	< 75
C=CCNC(=O)C(=O)C(CC1CC1)NC(=O)[C@@H]1CC2(CN1C(=O)[C@@H](NC(=O)NC1(CS(=O)(=O)C(C)(C)C)CCCCC1)C(C)(C)C)SCCS2 (stereo partly shown) [Compound 634]	< 75
C=CCNC(=O)C(=O)C(CCCC)NC(=O)[C@@H]1CC2(CN1C(=O)[C@@H](NC(=O)NC1(CS(=O)(=O)C(C)(C)C)CCCCC1)C(C)(C)C)SCCS2 (stereo partly shown) [Compound 635]	< 75
C=CCNC(=O)C(=O)C(CC1CC1)NC(=O)[C@@H]1[C@@H]2[C@H](CN1C(=O)[C@H](CS(=O)(=O)C(C)(C)C)NC(=O)NC1(CS(=O)(=O)C(C)(C)C)CCCCC1)C2(C)C (stereo partly shown) [Compound 636]	> 250
CCCC(NC(=O)[C@@H]1[C@@H]2[C@H](CN1C(=O)[C@@H](NC(=O)NC1(CS(=O)(=O)C(C)(C)C)CCCCC1)C1(C)CCCCC1)[C@@]2(C)CO)C(=O)C(=O)NC1CC1 (stereo partly shown) [Compound 637]	75 to 250
C=CCNC(=O)C(=O)C(CCC)NC(=O)[C@@H]1[C@@H]2[C@H](CN1C(=O)[C@@H](NC(=O)NC1(C3CCCS3(=O)=O)CCCCC1)C1(C)CCCCC1)C2(C)C (stereo partly shown) [Compound 638]	< 75
CCCCC(NC(=O)[C@@H]1[C@@H]2[C@H](CN1C(=O)[C@@H](NC(=O)NC1(C3CCCS3(=O)=O)CCCCC1)C1(C)CCCCC1)C2(C)C)C(=O)C(=O)NC1CC1 (stereo partly shown) [Compound 640]	< 75
CC1([C@H](NC(=O)NC2(C3CCCS3(=O)=O)CCCCC2)C(=O)N2C[C@H]3[C@@H]([C@H]2C(=O)NC(CCC2CC2)C(=O)C(=O)NC2CC2)C3(C)C)CCCCC1 (stereo partly shown) [Compound 641]	< 75
C=CCNC(=O)C(=O)C(CCC1CC1)NC(=O)[C@@H]1[C@@H]2[C@H](CN1C(=O)[C@@H](NC(=O)NC1(CS(=O)(=O)C(C)(C)COC3CCCCO3)CCCCC1)C1(C)CCCCC1)C2(C)C (stereo partly shown) [Compound 642]	< 75
CCCC(NC(=O)[C@@H]1CC2(CN1C(=O)[C@@H](NC(=O)NC1(CS(=O)(=O)C(C)(C)C)CCCCC1)C1(C)CCCCC1)SCCS2)C(=O)C(=O)NC1CC1 (stereo partly shown) [Compound 643]	75 to 250
C=CCNC(=O)C(=O)C(CC1CC1)NC(=O)[C@@H]1[C@@H]2[C@H](CN1C(=O)[C@@H](NC(=O)N[C@]1(CS(=O)(=O)C(C)(C)C)CC[C@H]3C[C@@H]1C3(C)C)C1(C)CCCCC1)C2(C)C (stereo partly shown) [Compound 644]	75 to 250
CCCC(NC(=O)[C@@H]1[C@@H]2[C@H](CN1C(=O)[C@@H](NC(=O)NC1(CS(=O)(=O)C(C)(C)C)CCCCC1)C1(C)CCCCC1)[C@@]2(C)COC(=O)C(C)(C)C)C(=O)C(=O)NC1CC1 (stereo partly shown) [Compound 645]	75 to 250
C=CCNC(=O)C(=O)C(CC1CC1)NC(=O)[C@@H]1CC2(CN1C(=O)[C@@H](NC(=O)NC1(CS(=O)(=O)C(C)(C)C)CCCCC1)C(C)(C)C)SCCCS2 (stereo partly shown) [Compound 646]	< 75
C=CCNC(=O)C(=O)C(CCC)NC(=O)[C@@H]1CC2(CN1C(=O)[C@@H](NC(=O)NC1(CS(=O)(=O)C(C)(C)C)CCCCC1)C(C)(C)C)SCCCS2 (stereo partly shown) [Compound 647]	< 75
C=CCNC(=O)C(=O)C(CCC1CC1)NC(=O)[C@@H]1[C@@H]2[C@H](CN1C(=O)[C@@H](NC(=O)NC1(CS(=O)(=O)C(C)(C)CO)CCCCC1)C1(C)CCCCC1)C2(C)C (stereo partly shown) [Compound 648]	< 75
C=CCNC(=O)C(=O)C(CCCC)NC(=O)[C@@H]1C[C@@H](NS(=O)(=O)c2ccc(OC)cc2)CN1C(=O)[C@@H](NC(=O)NC1(CS(=O)(=O)C(C)(C)C)CCCCC1)C(C)(C)C (stereo partly shown) [Compound 653]	> 250
C=CCNC(=O)C(=O)C(CC1CC1)NC(=O)[C@@H]1C[C@@H](NS(=O)(=O)c2ccc(OC)cc2)CN1C(=O)[C@@H](NC(=O)NC1(CS(=O)(=O)C(C)(C)C)CCCCC1)C(C)(C)C (stereo partly shown) [Compound 654]	> 250
C=CCNC(=O)C(=O)C(CCC1CC1)NC(=O)[C@@H]1[C@@H]2[C@H](CN1C(=O)[C@@H](NC(=O)NC1(CS(=O)(=O)C(C)(C)COC)CCCCC1)C1(C)CCCCC1)C2(C)C (stereo partly shown) [Compound 657]	< 75
C=CCNC(=O)C(=O)C(CCCC)NC(=O)[C@@H]1CC2(CN1C(=O)[C@@H](NC(=O)NC1(CS(=O)(=O)C(C)(C)C)CCCCC1)C(C)(C)C)SCCCS2 (stereo partly shown) [Compound 658]	< 75
CCCC(NC(=O)[C@@H]1CC2(CN1C(=O)[C@@H](NC(=O)NC1(CS(=O)(=O)C(C)(C)C)CCCCC1)C(C)(C)C)SCCCS2)C(=O)C(=O)NC1CC1 (stereo partly shown) [Compound 659]	< 75
CCCCC(NC(=O)[C@@H]1[C@@H]2[C@H](CN1C(=O)[C@@H](NC(=O)NC1(C3CCCS3(=O)=O)CCCCC1)C(C)(C)C)C2(C)C)C(=O)C(=O)NC1CC1 (stereo partly shown) [Compound 661]	< 75
C=CCNC(=O)C(=O)C(CC1CCC1)NC(=O)[C@@H]1[C@@H]2[C@H](CN1C(=O)[C@@H](NC(=O)NC1(C3CCCS3(=O)=O)CCCCC1)C(C)(C)C)C2(C)C (stereo partly shown) [Compound 663]	< 75
